# Hit rate of the full screen: of about 360,000 compounds, about 11,000 (3.1%) were called active. Inconclusive results, whose numbers are uncertain, are shown with a selection of clear calls. Calls come from the whole dose curve; as a rule, active = well fitted inhibition curve with a large enough effect; inconclusive = small, poorly fitted or top-dose-only effect; inactive = no such curve, though single readings can be large or run the other way. No potency is given beside an inconclusive call; the fits are too rough.
# Biological target: Schistosoma mansoni thioredoxin glutathione reductase (TGR) (UniProt Q962Y6)
# Assay: qHTS Assay for the Inhibitors of Schistosoma Mansoni Peroxiredoxins; note: nearly all actives have a fitted effect of over 60% in size
# Conditions: purified TGR, DTNB reduction, TNB absorbance 405 nm; activity change, negative = inhibition: at 114 µM (top of the series) unless noted
# In short: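 First, TGR (20 nM dispensed) and NADPH were mixed with compound. Second, a 15 min room-temperature incubation followed. Third, further NADPH and then DTNB were added to start the reaction. Finally, TNB absorbance was monitored kinetically.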
# % is set by controls: 0 for no effect and ±100 for the full control effect; potency is the fitted concentration of half-maximal effect; tags give direction and shape of the fitted curve.
SMILES,Potency,"activity change, negative = inhibition"
Cc1ccnc(SC2CC(=O)N(c3ccc(Br)cc3)C2=O)n1 (centres undefined),active: 50.1 µM,
COC(=O)C(CO)Nc1ncnc2onc(-c3ccc(F)cc3)c12 (centres undefined),"inconclusive [inhibitor, partial curve, poor fit]",
CCOC(=O)NC(NC(=S)Nc1ccccc1[N+](=O)[O-])C(Cl)(Cl)Cl (centres undefined),"inconclusive [inhibitor, full curve]",
COc1cc(OC)cc(C(=O)NC(=S)Nc2cccnc2)c1,"inconclusive [inhibitor, full curve]",
COc1ccc(CCNC(=O)CCn2c(=O)[nH]c3cc(OC)c(OC)cc3c2=O)cc1OC,,inactive: -30.5%
COc1cccc(NC(=O)COC(=O)c2ccc(S(=O)(=O)NCc3ccco3)cc2)c1,"inconclusive [inhibitor, partial curve]",
Cc1ccc(-c2c(C(=O)O)c(C(=O)O)c3n2CCC3)cc1,"inconclusive [inhibitor, single point]",
Cc1cc(C)c(NC(=O)/C=C\C(=O)O)c([N+](=O)[O-])c1,active: 15.8 µM,
Cc1ccc(C)n1-c1ccc(C(=O)N/N=C/c2ccncc2)cc1,active: 25.1 µM,
COc1ccc(NC(=O)CC2C(=O)N(Cc3ccco3)C(=S)N2C(C)C)cc1 (centres undefined),"inconclusive [inhibitor, partial curve]",
O=[N+]([O-])/C(=C\Nc1ccccc1)S(=O)(=O)c1ccccc1,active: 39.8 µM,
O=C(Cc1cccc(C(F)(F)F)c1)NCC(c1ccco1)N1CCCCC1 (centres undefined),"inconclusive [inhibitor, partial curve]",
NCc1cc2c3c(c1)CCCN3CCC2,"inconclusive [inhibitor, partial curve]",
COc1ccc(C)cc1-n1c(SCC(=O)NCc2ccco2)nc2c([nH]c3ccccc32)c1=O,,inactive: -5.76%
Cc1ccc(N/C=C(\C2OC(=O)c3ccccc32)[N+](=O)[O-])c(C)c1 (centres undefined),"inconclusive [inhibitor, full curve, poor fit]",
Cc1nc(SCC(=O)NC(=O)NCc2ccco2)nc(C)c1C,active: 39.8 µM,
Cc1ccc(NC(=O)Cn2c(=O)n(CC(=O)NCCc3ccccc3)c(=O)c3ccccc32)cc1,"inconclusive [inhibitor, single point]",
CSc1nc(NCc2ccco2)c2c3c(sc2n1)CN(C)CC3,,inactive: 0%
COc1ccc(NC(=O)CN(C)CC(=O)c2c(C)[nH]c3ccccc23)cc1,"inconclusive [inhibitor, partial curve]",
Cc1ccc(S(=O)(=O)/C=C2\NC(=O)CS2)cc1,,inactive: -22.2%
CN(Cc1ccccc1)c1nc2c(S(=O)(=O)c3ccccc3)nnn2c2ccsc12,,inactive: 9.8%
COC(=O)c1c(C)oc(C)c1S(=O)(=O)NC(c1ccccc1)c1ccccc1,"inconclusive [inhibitor, partial curve]",
COC(C(=O)Nc1ccnn1C1CCN(Cc2ccc(C)o2)CC1)c1ccccc1 (centres undefined),"inconclusive [inhibitor, partial curve]",
COc1cc(C2CC(=O)N3CN(c4ccccc4C)CSC3=C2C#N)cc(OC)c1OC (centres undefined),"inconclusive [inhibitor, full curve]",
O=C(CCCn1c(=O)c2ccccc2n(CC(=O)NCc2ccco2)c1=O)NCc1ccco1,active: 25.1 µM,

SMILES,Potency,"activity change, negative = inhibition"
COc1ccccc1N1CCN(C2CC(=O)N(c3cccc(Cl)c3)C2=O)CC1 (centres undefined),active: 39.8 µM,
Cc1n[nH]c(=O)c2c(NC(=O)CSc3nncs3)oc(C)c12,"inconclusive [inhibitor, partial curve]",
CC(C)(C)C1=CC=C(C(C)(C)C)C(=O)C1=O,active: 25.1 µM,
CCOc1ccccc1CN1CCN(Cc2csc(C(C)=O)c2)CC1CCO (centres undefined),"inconclusive [inhibitor, partial curve]",
CCOc1cccc(NC(=O)CSc2sc3c(O)cc(=O)[nH]c3c2C#N)c1,"inconclusive [inhibitor, single point]",
Cc1ccccc1NC(=O)CCC(=O)OCC(=O)c1ccc(-c2ccccc2)cc1,"inconclusive [inhibitor, partial curve]",
Cc1noc2ncnc(N3CCCC3)c12,,inactive: 1.49%
Cc1ccccc1-c1nc(CS(=O)CC(=O)N2CCC3(CC2)OCCO3)c(C)o1 (centres undefined),active: 8.91 µM,
CC(C)Cc1nc(S(=O)(=O)c2ccc(Cl)cc2)c(N2CCOCC2)o1,active: 2.24 µM,
CNC(=S)Nc1cccc(-c2cnc3ccccc3n2)c1,active: 11.2 µM,
CC(C)C[C@@]12C(=O)N(c3cccc(Cl)c3)C(=O)N1[C@H](c1ccc(Br)cc1)[C@@H]1C(=O)N(C(C)(C)C)C(=O)[C@@H]12,,inactive: 2.25%
S=C(Nc1ccc2nc(-c3ccccn3)c(-c3ccccn3)nc2c1)N1CCCCCC1,"inconclusive [inhibitor, full curve, poor fit]",
O=C(O)c1ccccc1SC1CC(=O)N(c2ccc3c(c2)OCO3)C1=O (centres undefined),active: 2.24 µM,
O=C(Cn1ncc(Cl)c(Cl)c1=O)N1CCN(Cc2ccccc2)CC1,active: 8.91 µM,
O=[N+]([O-])c1cc(C(F)(F)F)cc([N+](=O)[O-])c1N1CCCNCC1,"inconclusive [inhibitor, full curve]",
COc1cccc(-c2cc(C(=O)Nc3cccnc3)no2)c1,,inactive: -15.1%
CC(C)c1nn2c(=O)cc(COC(=O)c3cccc(NC(=O)CCc4ccccc4)c3)nc2s1,,inactive: -3.32%
Cc1cccc2cc(CN(Cc3ccc(F)cc3)C(=O)N(C)C)c3nnnn3c12,"inconclusive [inhibitor, full curve]",
CCN(CC)c1ccc2nc3c(=O)n(C)c(=O)n(C)c3nc2c1,"inconclusive [inhibitor, single point]",
CC(C)(C)OC(=O)N/N=C\c1ccc([N+](=O)[O-])s1,"inconclusive [inhibitor, full curve]",
COc1cc(/C=N\n2cnnc2)ccc1OCC(=O)Nc1ccc(C)cc1,"inconclusive [inhibitor, partial curve]",
O=C(C1=C[C@@H](c2ccccc2)C[C@@H](OCc2ccc(CO)cc2)O1)N1CCOCC1,active: 44.7 µM,
CSCC[C@H](NC(=O)N1CCn2c1nc1ccccc12)C(=O)NCc1ccco1,"inconclusive [inhibitor, partial curve, poor fit]",
CCOc1nc(NC2CCCC2)nc(N2CCC(C)CC2)n1,,inactive: -8.53%
COc1ccc2oc(C(=O)N(C)CCOc3ccccc3)c(C)c2c1,,inactive: -19.2%

SMILES,Potency,"activity change, negative = inhibition"
CNc1ccc(Br)cc1C(O)c1ccccc1 (centres undefined),"inconclusive [inhibitor, partial curve]",
CN(C)c1ccc(-c2nc(-c3ccncc3)no2)cc1[N+](=O)[O-],"inconclusive [inhibitor, single point]",
Cc1ccc(C(=O)O)cc1NC(=S)NC(=O)c1ccc([N+](=O)[O-])c(C)c1,active: 20 µM,
CC1CCN(C(c2ccc(N(C)C)cc2)c2nnnn2Cc2ccccc2)CC1 (centres undefined),"inconclusive [inhibitor, partial curve]",
COc1ccc(NC(=O)c2c(NCc3cccc(OC)c3)sc3c2CCC3)cc1,"inconclusive [inhibitor, full curve]",
O=C(c1cc(S(=O)(=O)NCc2ccco2)ccc1Br)N1CCOCC1,,inactive: -23.4%
COC(=O)c1ccccc1NC(=S)N(Cc1ccc2c(c1)OCO2)Cc1cc2ccc(OC)cc2[nH]c1=O,,inactive: -14.9%
CC(C)CC(NC(=O)/C(=C/c1ccco1)NC(=O)c1ccc(Br)o1)C(=O)O (centres undefined),active: 44.7 µM,
CCn1cc(C=C2C(=O)NC(=O)NC2=O)c2ccccc21,"inconclusive [inhibitor, partial curve]",
Cc1cc(C)c2[nH]c(=O)c(CN(Cc3ccco3)C(=O)c3cccs3)cc2c1,"inconclusive [inhibitor, partial curve]",
Cc1nn(Cc2ccccc2Cl)c(Cl)c1C(=O)OCC(=O)NCc1ccco1,,inactive: -26%
COc1cc2c(cc1OC)[C@@H](Cc1ccc(OCCC#N)cc1)N(C)CC2,active: 50.1 µM,
CN1CCN2c3ccc(N)cc3CC3(C(=O)NC(=O)NC3=O)C2C1 (centres undefined),"inconclusive [inhibitor, partial curve]",
O=C1/C(=C/c2ccco2)SC(=S)N1CC1CCCO1 (centres undefined),active: 20 µM,
Cc1ccc(S(=O)(=O)N2CCCC2C(=O)NCc2ccncc2)cc1 (centres undefined),"inconclusive [inhibitor, partial curve]",
COc1cc2c(cc1OC)-c1cc(Nc3cccc(C)c3)nc(=O)n1CC2,,inactive: -0.404%
COc1cc(OC)cc(C(=O)NC(=S)N(Cc2ccccc2)C(C)C)c1,"inconclusive [inhibitor, full curve]",
CCOc1cccc(/C(O)=C2/C(=O)C(=O)N(CCOC)C2c2ccc(C)o2)c1 (centres undefined),"inconclusive [inhibitor, partial curve]",
Cc1cccc(N2C(=O)CC(Sc3nc(C)cc(C)n3)C2=O)c1 (centres undefined),,inactive: 0%
NC(=O)c1cc(N2C(=O)C=CC2=O)ccc1Cl,active: 0.398 µM,
O=C(Nc1cc(S(=O)(=O)N2CCCC2)ccc1Cl)C1=COCCO1,,inactive: 1.63%
Cc1cc(C)c2c(N=NN3CCOCC3)[nH]nc2n1,,inactive: -6.82%
COc1ccc(-n2cnnc2SCc2cnc(-c3ccccc3)s2)cc1,"inconclusive [inhibitor, partial curve]",
NS(=O)(=O)c1ccc(NC(=S)NCc2ccccc2Cl)cc1,"inconclusive [inhibitor, partial curve]",
